Laboratory results reported in article PMC12820563.
The other results are listed elsewhere or left out. The list includes weakly bound sequences.

Target: T1, MBP-FoxP3dN (UniProt Q99JB6)
T1 sequence: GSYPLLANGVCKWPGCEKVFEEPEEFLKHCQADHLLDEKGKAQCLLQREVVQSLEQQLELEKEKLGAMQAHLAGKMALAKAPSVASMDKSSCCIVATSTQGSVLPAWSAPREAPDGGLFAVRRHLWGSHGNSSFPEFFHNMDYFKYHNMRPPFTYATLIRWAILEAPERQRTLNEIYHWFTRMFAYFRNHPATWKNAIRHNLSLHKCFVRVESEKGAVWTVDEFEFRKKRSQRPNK
Test: PD-seq (MBP pull-down with sequencing)
Conditions: 20 mM Tris-HCl pH 7.5, 100 mM NaCl, 1.5 mM MgCl2, 0.4 uM protein, 0.1 uM dsDNA library, 30 min, room temperature, amylose pull-down; high values mean tight binding; double strand, one strand shown

Sequence	binding signal (RPM ratio (pull-down/input))
GATGATTGTTCTCCCAGCTGATGAATTGGGTGTCTCGAGTAAACAAATTTTCCTAATCTTTCTGTTCAAGCGCCATCTAC	1.29
GATGATTGTTCTCCCAGCTGATGAATTGGTCTGCTCGAGTAAACAAATTTTCCTAATCTTTCTGTTCAAGCGCCATCTAC	0.347
GATGATTGTTCTCCCAGCTGATGAATTGCGGTGCTCGAGTAAACAAATTTTCCTAATCTTTCTGTTCAAGCGCCATCTAC	0.874
GATGATTGTTCTCCCAGCTGATGAATTGCAGGTCTCGAGTAAACAAATTTTCCTAATCTTTCTGTTCAAGCGCCATCTAC	0.813
GATGATTGTTCTCCCAGCTGATGAATTATCCCCCTCGAGTAAACAAATTTTCCTAATCTTTCTGTTCAAGCGCCATCTAC	0.246
GATGATTGTTCTCCCAGCTGATGAATTATAACGCTCGAGTAAACAAATTTTCCTAATCTTTCTGTTCAAGCGCCATCTAC	0.497
GATGATTGTTCTCCCAGCTGATGAATTGTCGTACTCGAGTAAACAAATTTTCCTAATCTTTCTGTTCAAGCGCCATCTAC	0.671
GATGATTGTTCTCCCAGCTGATGAATTCGTCTCATCGAGTAAACAAATTTTCCTAATCTTTCTGTTCAAGCGCCATCTAC	0.473
GATGATTGTTCTCCCAGCTGATGAATTGGCGTTATCGAGTAAACAAATTTTCCTAATCTTTCTGTTCAAGCGCCATCTAC	1.24
GATGATTGTTCTCCCAGCTGATGAATTTGGTTGGTCGAGTAAACAAATTTTCCTAATCTTTCTGTTCAAGCGCCATCTAC	2.96
GATGATTGTTCTCCCAGCTGATGAATTTCAGGGGTCGAGTAAACAAATTTTCCTAATCTTTCTGTTCAAGCGCCATCTAC	0.329
GATGATTGTTCTCCCAGCTGATGAATTCACCTGGTCGAGTAAACAAATTTTCCTAATCTTTCTGTTCAAGCGCCATCTAC	0.245
GATGATTGTTCTCCCAGCTGATGAATTAGCGCGGTCGAGTAAACAAATTTTCCTAATCTTTCTGTTCAAGCGCCATCTAC	0.394
GATGATTGTTCTCCCAGCTGATGAATTCACGTATTCGAGTAAACAAATTTTCCTAATCTTTCTGTTCAAGCGCCATCTAC	0.972
GATGATTGTTCTCCCAGCTGATGAATTTGTTAACTCGAGTAAACAAATTTTCCTAATCTTTCTGTTCAAGCGCCATCTAC	3.94
GATGATTGTTCTCCCAGCTGATGAATTCTGGCACTCGAGTAAACAAATTTTCCTAATCTTTCTGTTCAAGCGCCATCTAC	0.445
GATGATTGTTCTCCCAGCTGATGAATTAATGTATTCGAGTAAACAAATTTTCCTAATCTTTCTGTTCAAGCGCCATCTAC	2.84
GATGATTGTTCTCCCAGCTGATGAATTAGCACCATCGAGTAAACAAATTTTCCTAATCTTTCTGTTCAAGCGCCATCTAC	0.51
GATGATTGTTCTCCCAGCTGATGAATTATTCATATCGAGTAAACAAATTTTCCTAATCTTTCTGTTCAAGCGCCATCTAC	0.511
GATGATTGTTCTCCCAGCTGATGAATTGACGGGGTCGAGTAAACAAATTTTCCTAATCTTTCTGTTCAAGCGCCATCTAC	0.259

Sequence	binding signal (RPM ratio (pull-down/input))
GATGATTGTTCTCCCAGCTGATGAATTTGGAATTTCGAGTAAACAAATTTTCCTAATCTTTCTGTTCAAGCGCCATCTAC	1.36
GATGATTGTTCTCCCAGCTGATGAATTACCGCCGTCGAGTAAACAAATTTTCCTAATCTTTCTGTTCAAGCGCCATCTAC	0.568
GATGATTGTTCTCCCAGCTGATGAATTCCCAGGTTCGAGTAAACAAATTTTCCTAATCTTTCTGTTCAAGCGCCATCTAC	0.203
GATGATTGTTCTCCCAGCTGATGAATTATAGTATTCGAGTAAACAAATTTTCCTAATCTTTCTGTTCAAGCGCCATCTAC	1.43
GATGATTGTTCTCCCAGCTGATGAATTTGGCAGTTCGAGTAAACAAATTTTCCTAATCTTTCTGTTCAAGCGCCATCTAC	0.997
GATGATTGTTCTCCCAGCTGATGAATTCCTAGAGTCGAGTAAACAAATTTTCCTAATCTTTCTGTTCAAGCGCCATCTAC	0.209
GATGATTGTTCTCCCAGCTGATGAATTCAAGAGCTCGAGTAAACAAATTTTCCTAATCTTTCTGTTCAAGCGCCATCTAC	0.186
GATGATTGTTCTCCCAGCTGATGAATTTCGAATCTCGAGTAAACAAATTTTCCTAATCTTTCTGTTCAAGCGCCATCTAC	1.5
GATGATTGTTCTCCCAGCTGATGAATTCGAACAATCGAGTAAACAAATTTTCCTAATCTTTCTGTTCAAGCGCCATCTAC	0.331
GATGATTGTTCTCCCAGCTGATGAATTCGTTGAATCGAGTAAACAAATTTTCCTAATCTTTCTGTTCAAGCGCCATCTAC	0.385
GATGATTGTTCTCCCAGCTGATGAATTTAGGGCATCGAGTAAACAAATTTTCCTAATCTTTCTGTTCAAGCGCCATCTAC	0.955
GATGATTGTTCTCCCAGCTGATGAATTTGGCAATTCGAGTAAACAAATTTTCCTAATCTTTCTGTTCAAGCGCCATCTAC	4
GATGATTGTTCTCCCAGCTGATGAATTTAAAGGATCGAGTAAACAAATTTTCCTAATCTTTCTGTTCAAGCGCCATCTAC	0.18
GATGATTGTTCTCCCAGCTGATGAATTATTAATGTCGAGTAAACAAATTTTCCTAATCTTTCTGTTCAAGCGCCATCTAC	0.506
GATGATTGTTCTCCCAGCTGATGAATTTGCTCTGTCGAGTAAACAAATTTTCCTAATCTTTCTGTTCAAGCGCCATCTAC	0.443
GATGATTGTTCTCCCAGCTGATGAATTCTACATTTCGAGTAAACAAATTTTCCTAATCTTTCTGTTCAAGCGCCATCTAC	0.383
GATGATTGTTCTCCCAGCTGATGAATTCGCGTCCTCGAGTAAACAAATTTTCCTAATCTTTCTGTTCAAGCGCCATCTAC	1.19
GATGATTGTTCTCCCAGCTGATGAATTAGGTCGTTCGAGTAAACAAATTTTCCTAATCTTTCTGTTCAAGCGCCATCTAC	0.522
GATGATTGTTCTCCCAGCTGATGAATTAGATTATTCGAGTAAACAAATTTTCCTAATCTTTCTGTTCAAGCGCCATCTAC	1.87
GATGATTGTTCTCCCAGCTGATGAATTCTTGGTGTCGAGTAAACAAATTTTCCTAATCTTTCTGTTCAAGCGCCATCTAC	0.435
